# Source: the supplement of paper PMC5919970
# Counter-ions that a name gives are not always drawn. In all, about 2,000 compounds were measured (“fractional viability relative to vehicle”: median about 0.91, lowest 2% from about 0.045 on). The list shows a part of the results.
# Test system: TYKNU
# Test: fractional viability relative to vehicle; TYKNU is a high-grade serous ovarian cancer line; higher = less growth inhibition
# Settings: 72 h
# Method in brief: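 Drug treatment lasted 72 h, with cells grown at 37 °C in 5% CO2 in RPMI 1640 supplemented with 10% FBS. Beforehand, TYKNU control cells or their lentiCRISPRv2 knockout derivatives had been seeded at 500 cells per well into drug-stamped 384-well plates carrying a ~2100-compound library at 2 or 10 μM, in duplicate. Viability came from Cell Titer Glo luminescence, with averaged duplicate treatment wells normalised to duplicate control wells in the same plate position.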
# [1] = 2uM, genotype: DNM1L knockout (sgDNM1L #1)
# [2] = 2uM, genotype: sgCTRLA1 (non-targeting control)
# [3] = 10uM, genotype: DNM1L knockout (sgDNM1L #1)
# [4] = 10uM, genotype: sgCTRLA1 (non-targeting control)
SMILES,fractional viability [1],fractional viability [2],fractional viability [3],fractional viability [4]
Clc1ccc(COC(Cn2ccnc2)c2ccc(Cl)cc2Cl)c(Cl)c1 (stereo not given) [Miconazole],0.807,1.09,0.396,0.77
Clc1ccc(COC(Cn2ccnc2)c2ccc(Cl)cc2Cl)c(Cl)c1 (stereo not given) [Miconazole Nitrate],0.949,0.989,0.529,0.799
Cc1cc(=O)n(-c2ccccc2)n1C [Antipyrine],1.1,1.16,0.859,1.07
CO[C@H]1O[C@@H]2O[C@@]3(C)CC[C@H]4[C@H](C)CC[C@@H]([C@H]1C)[C@@]24OO3 [Artemether],0.731,0.868,0.592,0.8
CC(C)(C)C[C@@H]1N[C@@H](C(=O)N[C@H]2CC[C@H](O)CC2)[C@H](c2cccc(Cl)c2F)[C@]12C(=O)Nc1cc(Cl)ccc12,0.274,0.277,0.259,0.225
O=c1c2ccccc2oc2ccccc12 [Xanthone],0.957,1.15,0.75,1.1
NC12CC3CC(CC(C3)C1)C2 [Amantadine HCl],1.02,1.03,0.965,1.02
Cn1ncc(Cl)c1-c1cc(C(=O)N[C@H](CN)Cc2cccc(F)c2)sc1Cl,0.644,0.826,0.455,0.439
Cc1c(Cc2ccc3ccccc3n2)c2cc(F)ccc2n1CC(=O)O,1.09,1.05,0.873,1.1
CO[C@@H](C(=O)N1Cc2[nH]nc(NC(=O)c3ccc(N4CCN(C)CC4)cc3)c2C1)c1ccccc1,0.503,0.521,0.486,0.427
CN1CCN(C2=Nc3cc(Cl)ccc3Nc3ccccc32)CC1 [Clozapine],0.997,1.05,0.919,0.877
C=CC(=O)N1CCC(Oc2cc3c(Nc4ccc(Cl)c(Cl)c4F)ncnc3cc2OC)CC1 [Poziotinib (HM781-36B)],0.879,0.865,0.528,0.464
Brc1ccc([C@H]2CN3CCSC3=N2)cc1 [(-)-p-Bromotetramisole Oxalate],0.693,0.908,0.866,0.668
CCCCCCCCCCC[C@@H](C[C@@H]1OC(=O)[C@H]1CCCCCC)OC(=O)[C@H](CC(C)C)NC=O [Orlistat],0.87,0.965,0.499,0.807
CC1(C)CCC(CN2CCN(c3ccc(C(=O)NS(=O)(=O)c4ccc(NCC5CCOCC5)c([N+](=O)[O-])c4)c(Oc4cnc5[nH]ccc5c4)c3)CC2)=C(c2ccc(Cl)cc2)C1,0.697,0.921,0.852,0.706
CS(=O)(=O)c1cccc(CNc2nc(Nc3ccc4c(c3)CCC(=O)N4)ncc2C(F)(F)F)c1,0.995,0.99,0.579,0.534
Cc1ccc(NC(=O)c2ccc(CN3CC[C@H](N(C)C)C3)c(C(F)(F)F)c2)cc1Nc1nccc(-c2cncnc2)n1 [Bafetinib (INNO-406)],0.684,0.569,0.0871,0.0998
O=NO [Sodium Nitrite],1.02,1.19,0.911,1.08
O=C(O)CCC(=O)Nc1ccc(Br)cn1 [Bikinin],0.804,0.987,0.703,0.789
COc1ccc(C(=O)Nc2sc3c(c2C(N)=O)CCCC3)cc1OC,0.763,1.02,0.861,0.817
CC(C)(Oc1ccc(Cl)cc1)C(=O)O [Clofibric Acid],0.85,1.06,0.749,0.991
CC(=O)[C@@]1(O)CC[C@H]2[C@@H]3CCC4=CC(=O)CCC4=C3[C@@H](c3ccc(N(C)C)cc3)C[C@@]21C [Ulipristal],1.21,1.03,0.769,0.911
COc1cc(Nc2ncc(F)c(Nc3ccc4c(n3)NC(=O)C(C)(C)O4)n2)cc(OC)c1OC,0.858,1.03,0.497,0.582
COc1cc(Nc2ncc(F)c(Nc3ccc4c(n3)NC(=O)C(C)(C)O4)n2)cc(OC)c1OC [R406 (free base)],0.948,1,0.973,0.961
COc1cc2ncc(-c3ccccc3)nc2cc1OC [Tyrphostin AG 1296],0.982,1.1,1.25,0.81
CCC[C@H](Nc1nc(-c2ccc(NC(=O)NCC)c(OC)c2)ncc1C)c1cccnc1 [CYT997 (Lexibulin)],0.159,0.134,0.139,0.107
CC(C)(Sc1cc(C(C)(C)C)c(O)c(C(C)(C)C)c1)Sc1cc(C(C)(C)C)c(O)c(C(C)(C)C)c1 [Probucol],1.05,1.01,0.979,0.985
CS(=O)(=O)CCNCc1ccc(-c2ccc3ncnc(Nc4ccc(OCc5cccc(F)c5)c(Cl)c4)c3c2)o1,1.08,1.02,0.179,0.303
C=CC(=O)Nc1cccc(Nc2nc(Nc3ccc(N4CCN(C(C)=O)CC4)cc3OC)ncc2C(F)(F)F)c1,0.528,0.856,0.24,0.235
Nc1c(Br)cc(Br)cc1CN[C@H]1CC[C@H](O)CC1 [Ambroxol HCl],0.996,1.09,0.813,0.967
